Laboratory results published in the supplement of paper PMC11125491.
± gives the standard deviation of the averaged measurements. Growth of baker's yeast expressing single-residue variants of Pneumocystis jirovecii dihydrofolate reductase in 8.8 or 44 µM methotrexate (about 75% and 90% inhibition of the wild type). Selection coefficient per generation; 0 = like wild type, above 0 = less sensitive, below 0 = more sensitive or loss of function. No active / inactive call per row; the paper calls resistant above 0.220 (8.8 µM) or 0.243 (44 µM) together with a significance test. At 44 µM about 15% of codons end with one read or none, so the lowest values are floors (replicate rank correlation 0.74; 0.94 at 8.8 µM).

B1: UniProt A0EPZ9; numbered along this chain (parent)
chain: MDWQKSLTLIVALTLSRGIGLKNDLPWKLKSDMMFFSRVTSGLLVTRSTGQMNVVLMGRKTWESLPAHSRPLKNRINVVISRQEVLDLGGGAYHARSLDDALALLSQIYDSTSKIQLNRVFVIGGGELCKAAMEHSRLNRIIATVIHNEVDCDVFFPIDFRSSQSCLPWRKQDHSVLEAWVGSKVPQGKINENGFIYEFEMWIRDI

Variants of: B1
Assay: selection coefficient against synonymous wild-type codons (log2 per generation); higher = faster growth than wild type
Settings: with Saccharomyces cerevisiae carrying the variant on a plasmid
Description: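 Pooled growth of yeast carrying single-residue variants of P. jirovecii dihydrofolate reductase (own DFR1 gene intact), two passages at 30 °C, three cultures, sequenced before and after. Codons with under 15 starting reads are left out; codons of one change are averaged.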

Variant	selection coefficient against synonymous wild-type codons (log2) (methotrexate 8.8 µM)	selection coefficient against synonymous wild-type codons (log2) (methotrexate 44 µM)
MDWQKSLTLIVALTLSRGIGLKNDLPWKLKSDMMFFSRVTSGLLVTRSTGQMNVVLMGRKTWESLPAHSRPLKNRINVVISRQEVLDLGGGAYHARSLDDALALLSQIYDSTSKIQLNRVFVIGGGELCKAAMEHSRLNRIIATVIHNEVDCDVFFPIDRRSSQSCLPWRKQDHSVLEAWVGSKVPQGKINENGFIYEFEMWIRDI [F160R]	0.428 ± 0.044	0.444 ± 0.037
MDWQKSLTLIVALTLSRGIGLKNDLPWKLKSDMMFFSRVTSGLLVTRSTGQMPVVLMGRKTWESLPAHSRPLKNRINVVISRQEVLDLGGGAYHARSLDDALALLSQIYDSTSKIQLNRVFVIGGGELCKAAMEHSRLNRIIATVIHNEVDCDVFFPIDFRSSQSCLPWRKQDHSVLEAWVGSKVPQGKINENGFIYEFEMWIRDI [N53P]	0.0287 ± 0.068	0.0334 ± 0.087
MDWQKSLTLIVALTLSRGIGLKNDLPWKLKSDMMFFSRVTSGLLVTRSTGQMNVVLMGRKTWESLPAHSRPLKNRINVVISRQEVLDLGGGAYHARSLDDALALLSQIYDSTSKIQLNRVFVIGGGELCKAAMEHSRLNRIIATVIHNEVDCDVFFPIDFRSSQSCLPWRKQDHSVLEAWVGSKVPQGKINENGFIYEFFMWIRDI [E200F]	0.151 ± 0.074	0.175 ± 0.06
MDWQKSLTLIVALTLERGIGLKNDLPWKLKSDMMFFSRVTSGLLVTRSTGQMNVVLMGRKTWESLPAHSRPLKNRINVVISRQEVLDLGGGAYHARSLDDALALLSQIYDSTSKIQLNRVFVIGGGELCKAAMEHSRLNRIIATVIHNEVDCDVFFPIDFRSSQSCLPWRKQDHSVLEAWVGSKVPQGKINENGFIYEFEMWIRDI [S16E]	0.153 ± 0.044	0.0696 ± 0.053
MDWQKSLTLIVALTLSRGIGLKNDLPWKLKSDMMFFSRVTSGLLVTRSTGQMNVVLMGRKTWESLPAHSRPLKNRINVVISRQEVLDLGGGAYHARSLDDALALLSQIYDSTSKIQLNRVFVIGGGELCKADMEHSRLNRIIATVIHNEVDCDVFFPIDFRSSQSCLPWRKQDHSVLEAWVGSKVPQGKINENGFIYEFEMWIRDI [A132D]	-0.286 ± 0.022	-0.0539 ± 0.053
MDWQKSLTLIVALTLSRGIGLKNDLPWKLKSDMMFFSRVTSGLLVTRSTGQMNVVLMGRKTWESLPAHSRPLKNRINVVISRQEVLDLGGGAYHARSLDDALALLSQIYDSTSKIQLNRVFVIGGGELCKAAMEHSRLNRIIATVIHNEVDCDVFFPIDFRSSYSCLPWRKQDHSVLEAWVGSKVPQGKINENGFIYEFEMWIRDI [Q164Y]	-0.122 ± 0.097	-0.12 ± 0.049
MDWQKSLTLIVALTLSRGIGLKNDLPWKLKSDMMFFSRVTSGLLVTRSTGQMNVVLMGRKTWESLPAHSRPLKNRINVVISRQEVLDLGGGAYHARSLDDALAYLSQIYDSTSKIQLNRVFVIGGGELCKAAMEHSRLNRIIATVIHNEVDCDVFFPIDFRSSQSCLPWRKQDHSVLEAWVGSKVPQGKINENGFIYEFEMWIRDI [L104Y]	-0.304 ± 0.11	-0.252 ± 0.12
MDWQKSLTLIVALTLSRGIGLKNDLPWKLKSDMMFFSRVTSGLLVTRSTGQMNVVLMGSKTWESLPAHSRPLKNRINVVISRQEVLDLGGGAYHARSLDDALALLSQIYDSTSKIQLNRVFVIGGGELCKAAMEHSRLNRIIATVIHNEVDCDVFFPIDFRSSQSCLPWRKQDHSVLEAWVGSKVPQGKINENGFIYEFEMWIRDI [R59S]	-0.0859 ± 0.059	-0.123 ± 0.11
